Measurements taken from US20220064691A1 (ABERA BIOSCIENCE, published 2022).

Tests used:
Pla2-SpT = molecular target: T1, Pla2-SpT; test: overview table of covalent ligation to inclusion bodies
T1 construct: also called Pla2-SpyTag
T1 chain: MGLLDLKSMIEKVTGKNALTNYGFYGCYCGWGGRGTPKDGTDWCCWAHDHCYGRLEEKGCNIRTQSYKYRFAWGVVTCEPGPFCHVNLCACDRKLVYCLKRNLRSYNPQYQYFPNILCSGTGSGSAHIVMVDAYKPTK

Pla2-SnT = molecular target: T2, Pla2-SnT; test: as above
T2 construct: also called Pla2-SnoopTag
T2 chain: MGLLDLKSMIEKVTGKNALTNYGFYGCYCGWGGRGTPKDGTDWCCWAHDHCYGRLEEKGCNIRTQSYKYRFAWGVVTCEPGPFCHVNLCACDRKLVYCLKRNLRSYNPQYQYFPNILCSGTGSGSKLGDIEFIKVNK

B1: SpyCatcher-SnoopCatcher fusion protein (other)
chain: MSYYHHHHHHDYDS[about 80 residues left out]GKATKGDAHIGSPANLKALEAQKQKEQRQAAEELANAKKLKEQLEKGSHMKPLRGAVFSLQKQHPDYPDIYGAIDQNGTYQNVRTGEDGKLTFKNLSDGKYRLFENSEPAGYKPVQNKPIVAFQIVNGEVRDVTSIVPQDIPATYEFTNGKHYITNEPIPPK
notes: also called SpC-SnC
binding result (Pla2-SpT): binds
binding result (Pla2-SnT): binds
